# Data taken from PubChem BioAssay AID588342 (National Center for Advancing Translational Sciences (NCATS), 2011).
# Out of some 360,000 compounds screened, about 25,000 (6.9%) were called active. Inconclusive means that the source gave no clear call. Such entries were picked first, then a sample of the others. The call rests on the fitted dose curve; in most records, active means well fitted inhibition curve with a large enough effect; inconclusive means small, poorly fitted or top-dose-only effect; inactive means flat fitted curve, though single readings scatter. Where the call is inconclusive, the potency comes from a doubtful curve fit.
# Molecular target: Luciferin 4-monooxygenase (Photinus pyralis) (UniProt P08659)
# Assay: qHTS profiling assay for firefly luciferase inhibitor/activator using purifed enzyme and Km concentrations of substrates (counterscreen for miR-21 project); further: nearly all actives have a fitted effect of over 55% in size
# Settings: purified FLuc, luminescence inhibition; series mostly up to 57.5 µM
# In short: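 Purified P. pyralis luciferase, 10 nM final, with Km-level 10 uM D-luciferin and 10 uM ATP in 50 mM Tris acetate pH 7.5, 10 mM Mg acetate, 0.01% Tween-20, 0.05% BSA; 6-point qHTS titration about 60 µM downward; luminescence read.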
# Potency means the concentration at half of the fitted maximal effect; tags describe the fitted curve by direction and shape.
# Chain of UniProt P08659 (P08659 whole entry, looked up): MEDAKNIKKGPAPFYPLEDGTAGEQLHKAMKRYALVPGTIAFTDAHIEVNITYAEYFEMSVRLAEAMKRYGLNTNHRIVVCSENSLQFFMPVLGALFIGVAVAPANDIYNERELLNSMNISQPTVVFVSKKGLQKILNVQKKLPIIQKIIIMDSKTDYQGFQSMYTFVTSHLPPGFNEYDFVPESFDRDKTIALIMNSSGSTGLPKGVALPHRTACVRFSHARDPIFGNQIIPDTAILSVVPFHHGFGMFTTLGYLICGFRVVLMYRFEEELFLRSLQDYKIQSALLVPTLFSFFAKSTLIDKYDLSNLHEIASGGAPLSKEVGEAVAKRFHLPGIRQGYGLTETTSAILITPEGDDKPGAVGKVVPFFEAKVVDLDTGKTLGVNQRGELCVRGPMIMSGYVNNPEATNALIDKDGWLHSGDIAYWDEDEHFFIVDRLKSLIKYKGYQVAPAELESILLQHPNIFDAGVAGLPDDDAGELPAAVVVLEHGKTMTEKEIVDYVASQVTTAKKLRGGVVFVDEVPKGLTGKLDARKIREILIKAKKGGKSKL
row,SMILES,Potency
1,COc1ccc(C(=O)Nc2cc(S(=O)(=O)N3CCCCC3)ccc2OC)cc1,inactive
2,Cc1ccc2cccc(OCC(=O)N3CC(C)CC(C)C3)c2n1 (stereo not given),inactive
3,O=C(CN1C(=O)S/C(=C\c2ccccc2)C1=O)NNC(=O)c1ccccc1O,inactive
4,COc1ccc(/C=C/C(=O)c2ccc(O)cc2)cc1CN1CCOCC1,"inconclusive: 26.9 µM [inhibitor, partial curve, poor fit]"
5,Cc1ccc(-c2nc3c(c(SCC(=O)Nc4cccc(C(=O)O)c4)n2)Cc2cccc(C)c2O3)cc1,"inconclusive: 5.36 µM [inhibitor, full curve]"
6,CC(/C=C/C=C/c1ccccc1)=N/NC(=O)c1ccc2c(c1)OCCO2,"inconclusive: 21.3 µM [inhibitor, partial curve]"
7,Cc1ccn2c(NC3CCCC3)c(-c3ccccn3)nc2c1,"inconclusive: 37.9 µM [inhibitor, partial curve, poor fit]"
8,Cc1ccc(N=Cc2c(C)[nH]n(-c3ccccc3)c2=O)nc1,"inconclusive: 13.5 µM [inhibitor, partial curve]"
9,Cc1ccc2nc(NC(=O)C3CCN(S(=O)(=O)c4cc([N+](=O)[O-])ccc4Cl)CC3)sc2c1,"inconclusive: 26.9 µM [inhibitor, single point]"
10,O=C(CCN1C(=O)S/C(=C/c2ccc(F)cc2)C1=O)Nc1ccc(O)c(C(=O)O)c1,"inconclusive: 26.9 µM [inhibitor, single point]"
11,Cc1ccc(Cl)cc1N1CCN(C(=O)COCc2cc(-c3ccc4c(c3)OCO4)on2)CC1,inactive
12,NC(=O)c1cnn(-c2cc(Oc3ccccc3)ncn2)c1N,"inconclusive: 7.57 µM [inhibitor, full curve]"
13,O=c1cc(-c2ccccc2)nc2c(-c3ccccc3)c(C(F)(F)F)[nH]n12,"inconclusive: 23.9 µM [inhibitor, single point]"
14,O=C(O)c1ccc(N=NNc2cccc([N+](=O)[O-])c2)cc1,active: 2.39 µM
15,O=C(Nc1cccc(-c2cnc3ccccc3n2)c1)c1ccco1,"inconclusive: 30.1 µM [inhibitor, single point]"
16,Nc1ccccc1S(=O)(=O)NC1=NCCCCC1,inactive
17,COc1ccc(C2CC(c3ccccc3)=NN2C(=O)CSc2nccc(=O)[nH]2)cc1 (stereo not given),"inconclusive: 37.9 µM [inhibitor, partial curve, poor fit]"
18,COc1cccc(NC(=O)CSC(N)=O)c1,inactive
19,COc1cccc(NC(=O)COC(=O)CCC2CCCC2)c1,inactive
20,CC1CCCN(C(=O)c2ccc(Br)c(S(=O)(=O)N3CCOCC3)c2)C1 (stereo not given),inactive
